Results as given in PubChem BioAssay AID1345083 (National Center for Advancing Translational Sciences (NCATS), 2018).
Out of some 94,000 compounds screened, about 6,200 (6.6%) were called active. Inconclusive results, whose numbers are uncertain, are shown with a selection of clear calls. The call rests on the fitted dose curve; in most records, active means well fitted inhibition curve with a large enough effect; inconclusive means small, poorly fitted or top-dose-only effect; inactive means flat fitted curve, though single readings scatter. Potencies beside an inconclusive call are fits to weak or partial responses and may not hold up.

Assay: Cytotoxic Profiling in HEK 293 Cell Line of Diverse Libraries Using Quantitative High-Throughput Screening; further: nearly all actives have a fitted effect of over 60% in size
Details: HEK 293 viability, ATP luminescence (CellTiter-Glo), 48-72 h; series mostly up to 115 µM
Outline: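 qHTS cytotoxicity; HEK 293, 250 cells/well; compound pinned; 48 or 72 hr, 37 degree Celsius, 5% CO2, 95% humidity; CellTiter-Glo, 10 min RT; luminescence (ATP).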
Potency means the concentration at half of the fitted maximal effect; tags describe the fitted curve by direction and shape.

Compound	Potency
CSc1cccc(NC(=O)C2CCCN(c3cnc4nc(C)c(C)nc4c3)C2)c1 (stereo not given)	inactive
COCC1CN(Cc2ccccc2)C(=O)c2ccc(C)nc2O1 (stereo not given)	inconclusive: 89.1 µM [inhibitor, partial curve, poor fit]
COc1ccc(CNC(=O)C[C@@H]2CCNC[C@@H]2Cc2cc(COc3ccccc3)on2)cc1	inconclusive: 50.1 µM [inhibitor, partial curve, poor fit]
COCCCNC(=O)c1ccc2nnc(C3CC3)n2c1	inactive
C=CCOC(=O)C1=C(C)N=C2SC=C(CC(=O)NC3CC3)N2C1c1cc(C)ccc1C (stereo not given)	inconclusive: 56.2 µM [inhibitor, partial curve, poor fit]
O=C(CNC(=O)c1cccc(-c2ccc(C(F)(F)F)cc2)c1)NCCc1ccc(F)cc1	inconclusive: 56.2 µM [inhibitor, partial curve, poor fit]
COc1ccc(OCc2nc3c(n2Cc2ccccc2)C(=O)N(Cc2ccccc2F)CCN3)cc1OC	inconclusive: 50.1 µM [inhibitor, partial curve, poor fit]
CN(C)c1nc2c(c(=O)[nH]1)CCN(Cc1ccc(Cl)c(F)c1)CC2	inactive
O=C(Cn1cccc1-c1nc(-c2ccccc2)no1)Nc1ccccc1	inconclusive: 79.4 µM [inhibitor, partial curve, poor fit]
COc1ccc(-n2nc(C3CCCN(C(=O)Nc4ccc(Cl)cc4)C3)[nH]c2=O)cc1 (stereo not given)	inconclusive: 89.1 µM [inhibitor, single point]
Cc1ccc(-c2cc3c(=O)n(CCNC(=O)c4cccc(N(C)C)c4)ccn3n2)cc1C	inconclusive: 79.4 µM [inhibitor, partial curve, poor fit]
O=C(NC1CCCN(c2ccnc3ccnn23)C1)c1cncc(Br)c1 (stereo not given)	inconclusive: 50.1 µM [inhibitor, partial curve, poor fit]
COc1cccc(CNC(=O)c2c[nH]c3ncccc23)c1	inactive
CNC(C)c1cnccn1 (stereo not given)	inactive
CC(=O)N1CC2(CCCN(CC3CC3)C2)Cc2ccccc21 (stereo not given)	inactive
Cc1cc(=O)n(CC(=O)Nc2cc(F)ccc2F)c(-c2ccccc2)n1	inconclusive: 35.5 µM [inhibitor, full curve, poor fit]
CNc1ncc(C(=O)N2CCCC(CCc3ccc(F)cc3)C2)cn1 (stereo not given)	inconclusive: 50.1 µM [inhibitor, partial curve, poor fit]
CC(C)CCN1CCC(N2CCN(C(=O)CCCc3ccccc3)CC2)C1=O (stereo not given)	inconclusive: 89.1 µM [inhibitor, single point]
CCNC(=O)c1ccc2c(c1)C1(CCCN(C)C1)CN2C (stereo not given)	inconclusive: 141 µM [inhibitor, single point]
O=C(NC1CCCC1)N1CCCC(C(=O)N2CCC(c3nc4ncccc4[nH]3)CC2)C1 (stereo not given)	inactive
CC(C)c1ccc(CN2C[C@@H]3C(=O)N(CCc4ccccc4)C(=O)[C@@H]3C2)cc1	inconclusive: 89.1 µM [inhibitor, single point]
Cc1nn2c(c1-c1ccccc1Oc1ccccc1)N(C(=O)Cc1ccc3c(c1)OCO3)CCC2	inconclusive: 79.4 µM [inhibitor, single point]

Compound	Potency
Cc1cc2nc3n(c(=O)c2n1CC(=O)Nc1ccc(F)cc1)CCCCC3	inconclusive: 89.1 µM [inhibitor, single point]
O=C(c1ccccc1-c1ncn[nH]1)N1CCn2nc(Cc3ccccc3)cc2C1	inactive
Cc1cccc(-n2nc(-c3c(C)nc4scc(CC(=O)NC5CCCCC5)n4c3=O)cc2C)c1C	inconclusive: 89.1 µM [inhibitor, single point]
COCc1ccc2c(c1)c(OC(C)(C)C(=O)NCc1cnccn1)nn2Cc1ccccc1	inconclusive: 44.7 µM [inhibitor, partial curve]
CN1c2cc(C(=O)Nc3cccc(C(F)(F)F)c3)ccc2C(=O)N2CCCCC21 (stereo not given)	inconclusive: 15.8 µM [inhibitor, full curve, poor fit]
CC1=C[C@@H](CNC(=O)c2ccc(C#N)cc2)[C@H](C(C)C)C[C@H]1Cc1nnc(-c2ccncc2)o1	inconclusive: 44.7 µM [inhibitor, partial curve, poor fit]
O=c1n(CCN2CCN([S+](=O)([O-])c3ccccc3)CC2)nc2n1CCCC2	inactive
O=C1COc2cc(C(=O)NC3CC(c4nnc(CO)n4C4CC4)C3)ccc2N1 (stereo not given)	inactive
Cc1ccc(Nc2ccnc(N3CCC(C(=O)N4CCN(c5ncccn5)CC4)CC3)n2)cc1	active: 17.8 µM
COc1cccc(C(O)c2nc(C(=O)NCc3ccco3)c(C)o2)c1 (stereo not given)	inactive
COc1ccc(Nc2ccnc(N3CCC(N[S+](=O)([O-])c4cccs4)CC3)n2)cc1	active: 25.1 µM
COc1ccc(CNC(=O)N2CCCC(Cc3noc(-c4ccccn4)n3)C2)cc1 (stereo not given)	inconclusive: 79.4 µM [inhibitor, partial curve, poor fit]
COC[C@H]1NC(=O)CC[C@H]1C(=O)N1CCN(Cc2ccccc2)CC1	inactive
O=C1CCN(S(=O)(=O)c2ccccc2)CCCN(C(=O)C2(c3ccccc3)CC2)CCN1	inactive
COC1CCC12CCN(C(=O)c1nccn1C)CC2 (stereo not given)	inactive
CC(C)CCN1C(=O)CC[C@]2(C(=O)N3CCN(c4ccc(F)cc4)CC3)CCCC[C@@H]12	inconclusive: 50.1 µM [inhibitor, partial curve, poor fit]
Cc1ccc(CC(=O)N2[C@@H]3CC[C@H]2CC(NC(=O)c2ccncc2)C3)cc1 (stereo not given in full)	inactive
O=C1N(Cc2cccnc2)C[C@H]2CN(Cc3ccc(C(F)(F)F)cc3)CCN12	inconclusive: 25.1 µM [inhibitor, full curve, poor fit]
O=C(NCc1cccc(Cl)c1)c1ccc2nnc(C3CCCC3)n2c1	inconclusive: 79.4 µM [inhibitor, single point]
Cc1noc(-c2cn(C3CCN(C(=O)c4ccc(OC(F)(F)F)cc4)CC3)nn2)n1	inactive
CCc1nc(NC(=O)C[C@H]2NC(=O)c3ccccc3NC2=O)sc1C	inconclusive: 56.2 µM [inhibitor, partial curve, poor fit]
Cn1nccc1-c1cc2c(ccn2C)c(C(=O)NCc2cccnc2)n1	inactive

Compound	Potency
COc1ccccc1CNC(=O)C[C@@H]1[C@H](O)CCC2[C@](C)(CO)[C@H](OC(=O)NC(C)C)CC[C@]21C (stereo not given in full)	inactive
CCNc1cc(N2CCC(CCC(=O)NCC3CC3)CC2)ncn1	inconclusive: 39.8 µM [inhibitor, full curve, poor fit]
CC(C)Cn1c(=O)c(C(=O)NC2CC2)nc2cccnc21	inactive
COC(=O)[C@@H]1Cc2c([nH]c3ccccc23)[C@H]2C[C@H](NCCNC(C)=O)C[C@@H](c3ccc(C)cc3)N21	active: 25.1 µM
CCOc1cc(=O)n2c(c1C(=O)Nc1cccc(C#N)c1)CCCC2	inconclusive: 89.1 µM [inhibitor, single point]
COc1ccc(-c2noc(Nc3ccccc3)n2)cc1	inconclusive: 28.2 µM [inhibitor, partial curve, poor fit]
CCCNC(=O)c1cccc2c1CCN2C(=O)Nc1ccc(OC)cc1	inconclusive: 44.7 µM [inhibitor, partial curve, poor fit]
COc1ccc(-c2cc(N3CCCN(C(=O)c4cccc5[nH]ccc45)CC3)n[nH]2)cc1	inconclusive: 50.1 µM [inhibitor, partial curve, poor fit]
Cc1nc(N2CCN(Cc3csc(C)n3)CC2)c2sccc2n1	inconclusive: 89.1 µM [inhibitor, single point]
O=C(c1cnn2ccccc12)N1CCC(Cc2cccc(CO)c2)C1 (stereo not given)	inconclusive: 100 µM [inhibitor, single point]
Cc1ccc(Nc2ccnc(N3CCC(N[S+](=O)([O-])c4cccs4)CC3)n2)cc1	active: 22.4 µM
O=C(Cc1ccc(Cl)cc1)NC1CCN(c2cc(C(F)(F)F)ncn2)CC1	inconclusive: 56.2 µM [inhibitor, partial curve, poor fit]
O=C(Cc1cccc(F)c1)N1CCC2(CC1)CC(N(Cc1ccccc1)C1CC1)CCO2 (stereo not given)	inconclusive: 50.1 µM [inhibitor, partial curve, poor fit]
O=C(NC1CCCCC1)O[C@@H]1CO[C@H]2[C@@H]1OC[C@@H]2n1nnnc1-c1ccccc1	inconclusive: 39.8 µM [inhibitor, partial curve, poor fit]
COc1cccc(CC(=O)N2CCC3(CC2)CC(Cc2nc(-c4ccncc4)no2)CCO3)c1 (stereo not given)	active: 39.8 µM
CSc1ccc(-c2cccc(C(=O)NCCNC(=O)c3ccc(C)cc3)c2)cc1	inconclusive: 50.1 µM [inhibitor, partial curve, poor fit]
O=C1Nc2ccccc2C12CN(Cc1ccc3ccccc3c1)C2	inconclusive: 112 µM [inhibitor, single point]
COc1ccc(F)c(-c2nc(Cn3cnc4ccccc43)c(C)o2)c1	inconclusive: 39.8 µM [inhibitor, full curve, poor fit]
COc1ccc(Cl)cc1NC(=O)CCC1CCCN(c2nc(C)cc(C)n2)C1 (stereo not given)	inconclusive: 50.1 µM [inhibitor, partial curve, poor fit]
O=C(c1nc(-c2ccc(Cl)cc2Cl)c2cnccn12)N1CCN(c2ncccn2)CC1	inactive
COc1cccc(CCC(=O)N2C[C@@H](CO)[C@H](c3ccncc3)C2)c1	inactive
